Results taken from PubChem BioAssay AID1794842 (National Center for Advancing Translational Sciences (NCATS), 2023).
The campaign covered roughly 2,800 compounds. Fewer than 10 were called active. Calls follow the shape of the dose curve; as a rule, active = well fitted curve in the direction sought with a large enough effect; inconclusive = small, poorly fitted or top-dose-only effect, or another doubt; inactive = no such curve, though single readings can be large or run the other way. The list shows a part of the results.

What follows are compounds tested against Metallo-beta-lactamase type 2 (Klebsiella pneumoniae) (UniProt C7C422) (assay: qHTS to identify inhibitors of the New Delhi Metallo-beta-lactamase (NDM): Meropenem screen against the machine-based learning selections.). Conditions: Purified NDM-1, meropenem hydrolysis, absorbance 300 nm; at 38.4 µM (top of the series) unless noted.
Summary of the method: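 NDM-1 (2 nM final) in 50 mM HEPES pH 7.0, 1 uM Zn2SO4, 0.01% Tween20 was preincubated with compounds for >30 min. Nitrocefin (16.7 uM final) was read at 485 nm after 15 min, and meropenem (50 uM final) at 300 nm after 30 min.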
Also: % of control where 0% means no effect.

UniProt C7C422, sequence (C7C422 whole entry, looked up): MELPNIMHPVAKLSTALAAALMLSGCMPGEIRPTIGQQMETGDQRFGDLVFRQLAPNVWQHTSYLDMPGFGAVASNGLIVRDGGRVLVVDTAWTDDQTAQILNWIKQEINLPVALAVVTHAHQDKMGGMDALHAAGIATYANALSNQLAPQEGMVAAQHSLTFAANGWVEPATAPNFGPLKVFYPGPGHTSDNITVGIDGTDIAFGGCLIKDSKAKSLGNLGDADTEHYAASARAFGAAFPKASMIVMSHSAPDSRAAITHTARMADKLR

Activity change, negative = inhibition, inactive:
COc1ccc([C@H]2C[C@@H](O)[C@@H](O)[C@@H]2NC(=O)c2cc3ccccc3s2)cc1 7.6% [at 57.5 µM]
CC(C)(C)CC(=O)N1CC[C@H]2CC(=O)N(Cc3cccnc3)CC[C@H]2C1 0.408% [at 57.5 µM]
COC(=O)C1=CN(CC(=O)NCc2cccc(OC)c2)S(=O)(=O)N=C1C 5.16%
CC(C)C[C@@H]1N[C@H](C(=O)N2CCC(O)(c3ccccc3)CC2)Cc2cn(C)c3cccc1c23 -0.0467%
COc1cccc(NC(=O)N[C@H](C)c2onc(-c3ccc(F)cc3)c2C(=O)O)c1 3.68% [at 57.5 µM]
COc1ccc(CNC[C@H]2COCc3nc4cc(F)ccc4n32)cn1 -0.329% [at 57.5 µM]
O=C(O)c1cccc(CN2CC(CNc3ccccc3)C3(C2)CN(c2ccccc2)C3)c1 (centres undefined) 0.366% [at 57.5 µM]
Cc1cccc(-c2ccc3c(c2)C(=O)N2C[C@H](O)C[C@H]2C(=O)N3)c1C -1.55% [at 57.5 µM]
CC(=O)N1CC[C@H](c2nc3ccc(C#N)cc3[nH]2)C1 0.906% [at 76.7 µM]
C[C@@H]1C(=O)O[C@H]2[C@H]1CC[C@@]1(C)Cc3sc(NS(=O)(=O)c4ccc(Cl)cc4)nc3[C@@H](C)[C@H]21 -0.513%
CNC(=O)[C@@H]1C[C@H](Oc2cccnc2)CN1C(=O)c1ccc(OC)nc1 -0.275%
O=C(NC1CCCN(CCc2ccccc2)C1)C1(Cn2cccn2)CC1 (centres undefined) -1.99%
O=c1cc(-c2cccnc2)oc2c(-c3cccc(CO)c3)nccc12 11.4% [at 57.5 µM]
O=C(NC[C@H]1COCc2nc3ccccc3n21)c1cccnc1 -0.439% [at 57.5 µM]
C[S+](=O)([O-])Nc1cccc(-c2cc(-c3cccnc3)c3cncn3c2)c1 22.6% [at 57.5 µM]
CC(C)CN1C(=O)COC[C@@H]1[C@H](O)c1ccc(NC(=O)c2ccco2)cc1 9.23% [at 57.5 µM]
COc1cccc(NC(=O)N2CCN3C(=O)N(Cc4ccc(C)cc4)C[C@H]3C2)c1 -1.16% [at 57.5 µM]
c1cncc(CN2CCn3c(nnc3C3CCCNC3)C2)c1 (centres undefined) 53.6%
COCc1cn(C[C@H]2C[C@@H](NS(=O)(=O)c3ccccc3)[C@H](O)[C@@H]2O)nn1 -1.54% [at 57.5 µM]
O=C(O)Cn1ccc2cc(OCc3cccc(-c4ccccc4O)c3)cnc21 17.2% [at 57.5 µM]
COc1ccc(-c2ccc3ncc(Nc4ccc(C(N)=O)cc4)n3n2)cn1 52% [at 57.5 µM]
O=C(N[C@H]1CCN2C(=O)c3ccc(Cl)cc3NC(=O)[C@H]12)c1cccs1 2.84% [at 57.5 µM]
CCN1C(=O)Cc2cc(C(=O)NCc3cc(OC)ccc3OC)ccc21 0.875%
C[S+](=O)([O-])c1cccc(Nc2n[nH]c(C(O)c3ccccc3)n2)c1 (centres undefined) -0.744% [at 57.5 µM]
CC(=O)N1CCC(N[C@@H]2CO[C@H](CNC(=O)c3ccccc3)[C@H]2O)CC1 0.524% [at 57.5 µM]
COc1ccc(CN2CCC[C@H]2c2nc(-c3ccc(N(C)C)nc3)no2)c(O)c1 15.4% [at 57.5 µM]
Oc1cccc(-c2cc(-c3ccncc3)c3cncn3c2)c1 41.6% [at 76.7 µM]
COc1ccc2c(c1)nc1n2[C@@H](CNC(=O)c2ccncc2)COC1 4.11% [at 57.5 µM]
CC(C)(O)CCc1ccc(C(=O)N2CCC(c3cccc(O)c3)CC2)cc1 1.4%
COC1CCN(CC2CCCCCN2C(=O)CCCc2ccccc2)CC1 (centres undefined) -0.353%
Cc1cc(C(=O)N2C[C@@H](COc3ccccc3)[C@H](C(N)=O)C2)no1 -3.99%
CC(=O)N1CCC(NC[C@H]2COCc3nc4cc(C)ccc4n32)CC1 -0.677% [at 57.5 µM]
c1ccc(CNc2ncc(CN3CCC4(CCNCC4)CC3)cn2)cc1 0.519%
CNc1ccc(OC2CCN(C(=O)CCc3nc4ccccc4[nH]3)C2)nc1 (centres undefined) 2.49%
Cn1cccc1C(=O)N1CC[C@H](NC(=O)NC2CCCCC2)[C@H]1C(=O)N1CCC[C@@H]1C(N)=O 1.12%
CNC(=O)[C@@H](c1ccccc1F)N1CCC[C@H]1C(=O)NCC(C)C 68% [at 57.5 µM]
COc1ncccc1CNC[C@H]1O[C@@H]2C[C@@H](CC(=O)N3CCOCC3)O[C@@H]2[C@@H]1O -0.298% [at 57.5 µM]
c1ccc(Nc2cc3c(cn2)CN(Cc2cnc[nH]2)CCN3)cc1 11.8% [at 57.5 µM]
COc1ccc(C(=O)N2CC[C@@H](CC(=O)O)[C@@H](CCN3CCC[C@H]3C(N)=O)C2)cc1 52.7% [at 57.5 µM]
O=C(COc1ccccc1)Nc1ccc([C@@H](O)[C@H]2COCC(=O)N2Cc2ccccc2F)cc1 -1.9%
O=C(NC[C@H]1O[C@@H]2C[C@@H](CC(=O)N3CCC(F)(F)C3)O[C@@H]2[C@@H]1O)NC1CCC1 1.2% [at 57.5 µM]
COc1ccccc1C(O)c1nc(Nc2ccncc2)n[nH]1 (centres undefined) 13.5% [at 57.5 µM]
CCOc1ccccc1NC(=O)N1C[C@H](Oc2ccccc2)C[C@@H]1C(=O)NCCOC 0.201%
CN[C@@H](CO)C(=O)NCc1nc(-c2cccc(F)c2)c(-c2ccccn2)[nH]1 29%
O=C(Cc1ccc(N(Cc2ccc(F)cc2)C(=O)c2ccco2)cc1)NCc1ccc(F)cc1 3.53%
COC(=O)C(=O)N1CC[C@@H]2[C@H]1C(=O)N(C(C)C)C(=O)N2Cc1cccc(F)c1 -0.0056% [at 57.5 µM]
CN1C[C@@H](NS(C)(=O)=O)C[C@H]1c1nc(-c2ccc(Cl)cc2)no1 0.207% [at 57.5 µM]
COc1ccc(-c2nnc3n2CCN(C(=O)C(C)(C)C)C3)cc1 0.397% [at 57.5 µM]
CC1CCN(C(=O)c2ccccc2OCC2CCCN(C(=O)c3ccncc3)C2)CC1 (centres undefined) 1.25%
O=c1cc(-c2ccccn2)oc2c(Nc3ccccc3)nccc12 21.6% [at 57.5 µM]
Cc1cc(C)c(CNC(=O)c2nc(Nc3ccccc3)cc3[nH]ccc23)c(=O)[nH]1 15.4% [at 57.5 µM]
O=C(COc1ccccc1)N[C@H]1CO[C@H]2[C@@H]1OC[C@H]2OC(=O)Nc1ccccc1 -1.82% [at 57.5 µM]
O=C1NCCC[C@@H]1NC(=O)[C@H]1CN(C(=O)c2cccc(F)c2)CCN1S(=O)(=O)c1ccc(F)cc1 -0.325%
CC(C)C[C@@H]1N[C@H](C(=O)NCc2ccc(C(F)(F)F)cc2)Cc2c[nH]c3cccc1c23 0.524% [at 57.5 µM]
CC1=C[C@@H](CNC(=O)C2CC2)[C@H](C(C)C)C[C@H]1CC(=O)N1CCOCC1 -0.933% [at 57.5 µM]
COC(=O)[C@@H]1Cc2ncn(Cc3ccc(OC)cc3)c2CN1C(=O)c1ccc(C#N)cc1 0.586% [at 57.5 µM]
CC1CCN([C@@H]2[C@H](O)[C@H](CO)O[C@@H]2CNC(=O)c2ccccc2)CC1 18.5% [at 57.5 µM]
CC(C)(C)CC(=O)Nc1ccc([C@@H](O)[C@H]2COCC(=O)N2Cc2ccccc2F)cc1 0.758% [at 57.5 µM]
O=C(NCc1csc(-c2cnccn2)n1)C(c1cccnc1)N1CCOCC1 (centres undefined) 4.82%
O=C(c1ccc(Oc2ccccc2)cc1)N1CCNc2cnc(Nc3cccc(C(F)(F)F)c3)nc2C1 1.44%
COCCNC(=O)[C@H]1C[C@H](Oc2ccccc2)CN1C(=O)Cc1cccc(C)c1 0.106%
CS(=O)(=O)Nc1cc(-c2noc([C@@H]3CCCN3Cc3ccccc3)n2)ccn1 0.719% [at 57.5 µM]
O=C(c1ccc(NCc2ccncc2)cc1)N1CCCC2(CCNCC2)CC1 58%
NC(=O)c1cccc(-c2n[nH]c3c2CC(=O)N(CCOc2ccccc2)C3)c1 -3% [at 57.5 µM]
O=C(Cc1c[nH]c2ncc(-c3ccccc3Oc3ccccc3)cc12)NCc1cccnc1 8.58% [at 57.5 µM]
CCCS(=O)(=O)N1CCC(Oc2nccnc2N2CCOCC2)C1 (centres undefined) 5.44%
Cn1c(CN2CCOCC2)nnc1C1CCCN(S(=O)(=O)C2CC2)C1 (centres undefined) 1.93%
Cc1noc2c(Nc3ccc(C(N)=O)cc3)cc(-c3cccnc3)nc12 5.05% [at 57.5 µM]
COc1ccccc1C(=O)NC1CCN(c2ccc(C)cc2)C1=O (centres undefined) 2.2%
COc1ccc(CC(=O)N2CC(CO)C3(CCNCC3)C2)cc1 (centres undefined) 0.646%
CC(C)c1cccc(NC(=O)c2ccc3c(c2)N(C)C2CCCCN2C3=O)c1 (centres undefined) 0.56%
O=C(CN1C(=O)CNC1=O)NCCc1noc(-c2ccccc2)n1 -3.49%
Cc1ccc(-c2cnc([C@@H]3COCCN3Cc3ccccc3F)[nH]2)cc1 1.25% [at 57.5 µM]
C[S+](=O)([O-])CCn1ncc2cc(OCc3cccc(-c4ccccc4O)c3)ccc21 3.5% [at 57.5 µM]
